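All cell lines were grown in 96-well plates and treated with compound for 48 hours. GI50 = concentration required for 50% inhibition of growth. TGI: total growth inhibition.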

18 molecules from PubChem BioAssay (NCI) can be followed below.

The assay has as its system NCI-H322M lung. In words: NCI tumour cell line growth inhibition, 48 h.
`Nc1ccc(-c2nc3ccc(Cc4ccc5nc(-c6ccc(N)cc6)oc5c4)cc3o2)cc1`: the TGI is more than 100 µM.
The same measure, in the same setting: for `N#Cc1c(-c2ccccc2)c(C#N)c(=S)n(C2OCC(O)C(O)C2O)c1N` (stereo not given) the value was more than 100 µM.
Still for that read-out and setting: in the case of `CC(=O)NC(CCCOC(C)=O)C(=O)NC(CCCOC(C)=O)C(=O)NC(CCCOC(C)=O)C(=O)NC(Cc1ccc([N+](=O)[O-])cc1)C(=O)NCC(=O)OCc1ccccc1` (stereo not given) it was more than 100 µM; in that of `COC(=O)C1CCC[C@H]2C(CO)=C(C)C(=O)[C@@H]12` (stereo not given in full), more than 100 µM; in that of `COc1ccc(CCN2COc3ccc4ccc(=O)oc4c3C2)cc1OC`, more than 100 µM.
On the same count and under the same terms, in the case of `CCCCCCCCCCCCCCC[C@@H](O)C[N+](C)(C)CCO` it was 48.6 µM.
As for `O=C(O)CP(=O)(c1ccccc1)c1ccccc1.O=C(O)CP(=O)(c1ccccc1)c1ccccc1.[Cd]`, the GI50 is 71.4 µM and the TGI is more than 100 µM.
Take `O=c1cc(-c2ccccc2)nc2cc(-c3ccco3)[nH]n12`: the GI50 was 10.6 µM and the TGI is more than 100 µM.
For the molecule `N#Cc1nc(NC(=O)c2ccccc2)sc1N`, the TGI is more than 10 µM.
For the molecule `CSc1n[nH]c2n[nH]c(C)c12`, the TGI is more than 100 µM.
Consider `Nc1nc(NCC2(CO)CC(CCc3ccccc3)C2)cc(=O)[nH]1` (stereo not given), for which the TGI was more than 100 µM.
On the same count and under the same terms, for `O=C1CCCCCCCCCCC1CN(Cc1ccccc1)Cc1ccccc1` (stereo not given) the value was more than 100 µM; for `COc1ccc(/C(Cl)=C(\CNc2ccccn2)c2ccccc2)cc1OC`, more than 100 µM.
On the same count and under the same terms, for `C=C(CN(C)C)C(=O)c1ccc(OC)cc1` the value was 41.8 µM.
Still for that read-out and setting: for `O=C1c2cscc2C(=O)c2c(OCc3ccccc3)ccc(OCc3ccccc3)c21` the value was more than 100 µM.
As to `CC(C(=O)N1C(=O)N(C(=O)[C@H](C)C(O)c2ccccc2)[C@H](c2ccccc2)[C@H]1c1ccccc1)[C@@H](O)c1ccccc1` (stereo not given in full), the TGI was more than 100 µM.
In turn, `Cc1ccc(Cc2nn(C)c(=O)n2-n2cccc2)cc1` gave a TGI of more than 100 µM.
Molecule `COc1cc(/C=C2/C(=O)N=C(NC(C)=O)N2C)ccc1OC(C)=O` came in with a TGI of more than 100 µM.
